Results published in the supplement of paper PMC10037445.
“And” between values parts separate entries of the source, which are not always exact repeats. Equal entries are not always repeated. Whole data set: some 2,900 compounds, median “IRF Lucia reporter activity, fold change vs agonist alone” near 0.9, cut for the highest 2% near 2.8. This is one part of the list.

Key:
RAW-Dual [1] = test: IRF Lucia reporter activity, fold change vs agonist alone; higher = enhanced IRF activity; settings: library stock concentration (final ~1000-fold dilution): 10 mM; cytotoxicity flag (confluency mask): not cytotoxic; agonist: MPLA (TLR4) […]
How it was run: (§1)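 Reporter activity is given as fold change relative to agonist-alone wells. To measure it, 50 nL of library stock was pin-tooled onto RAW-Dual macrophages (50,000 cells/well, DMEM, 384-well plates), a PRR agonist followed 1 h later, and cells stayed at 37 °C, 5% CO2. Twenty hours on, supernatant was assayed for IRF (QuantiLuc luminescence) and NF-κB (QuantiBlue, 620 nm absorbance), and wells under 70% of agonist-control IncuCyte confluency in both mask sets were marked cytotoxic.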

RAW-Dual [2] = test: IRF Lucia reporter activity, fold change vs agonist alone; cytotoxicity flag (confluency mask): not cytotoxic; higher = enhanced IRF activity
How it was run: as §1

RAW-Dual [3] = test: IRF Lucia reporter activity, fold change vs agonist alone; cytotoxicity flag (confluency mask): cytotoxic (confluency <70% of control); higher = enhanced IRF activity
How it was run: as §1

[4] = agonist: 3'3'-cGAMP (STING) 10 ug/mL

SMILES: CCOC(N)=O
- IRF Lucia reporter activity (RAW-Dual [1]): 1.09

SMILES: CCOC(N)=O (library stock concentration (final ~1000-fold dilution): 10 mM)
- IRF Lucia reporter activity (RAW-Dual [2]; [4]): 1.1
- IRF Lucia reporter activity (RAW-Dual [2]; agonist: LPS (TLR4) 0.1 ug/mL): 1.34

SMILES: CCc1c(N(CC)C2CCOCC2)cc2oc(C3CCN(C(C)C)CC3)cc2c1C(=O)NCc1c(C)cc(C)[nH]c1=O (library stock concentration (final ~1000-fold dilution): 10 mM)
- IRF Lucia reporter activity (RAW-Dual [2]; [4]): 1.03
- IRF Lucia reporter activity (RAW-Dual [2]; agonist: LPS (TLR4) 0.1 ug/mL): 1.14

SMILES: COc1cc2ncnc(Nc3ccc(F)c(Cl)c3)c2cc1O (library stock concentration (final ~1000-fold dilution): 10 mM)
- IRF Lucia reporter activity (RAW-Dual [2]; [4]): 0.452
- IRF Lucia reporter activity (RAW-Dual [2]; agonist: LPS (TLR4) 0.1 ug/mL): 0.508

SMILES: COc1cc2ncnc(Nc3ccc(F)c(Cl)c3)c2cc1O
- IRF Lucia reporter activity (RAW-Dual [1]): 0.506

SMILES: CC(C)NC(=O)C1CCC(n2c(=NC(=O)c3ccc(F)cc3)[nH]c3ccc(CN4CCC(C(C)(C)O)CC4)cc32)CC1 (stereo unspecified) (library stock concentration (final ~1000-fold dilution): 10 mM)
- IRF Lucia reporter activity (RAW-Dual [2]; [4]): 0.193
- IRF Lucia reporter activity (RAW-Dual [2]; agonist: LPS (TLR4) 0.1 ug/mL): 0.812

SMILES: O=C(O)CCN1C(=O)/C(=C2/C(=O)Nc3ccc(Cl)cc32)SC1=S (library stock concentration (final ~1000-fold dilution): 10 mM)
- IRF Lucia reporter activity (RAW-Dual [2]; [4]): 1.05
- IRF Lucia reporter activity (RAW-Dual [2]; agonist: LPS (TLR4) 0.1 ug/mL): 0.398

SMILES: O=C(O)c1cc(C(=O)O)c(C(=O)N(Cc2cccc(Oc3ccccc3)c2)C2CCCc3ccccc32)cc1C(=O)O (stereo unspecified) (library stock concentration (final ~1000-fold dilution): 10 mM)
- IRF Lucia reporter activity (RAW-Dual [2]; [4]): 0.791
- IRF Lucia reporter activity (RAW-Dual [2]; agonist: LPS (TLR4) 0.1 ug/mL): 1.03

SMILES: COc1cc(Nc2ncc3c(n2)-c2ccc(Cl)cc2C(c2c(F)cccc2OC)=NC3)ccc1C(=O)O
- IRF Lucia reporter activity (RAW-Dual [1]): 1.26

SMILES: COc1cc(Nc2ncc3c(n2)-c2ccc(Cl)cc2C(c2c(F)cccc2OC)=NC3)ccc1C(=O)O (library stock concentration (final ~1000-fold dilution): 10 mM)
- IRF Lucia reporter activity (RAW-Dual [2]; [4]): 1.04
- IRF Lucia reporter activity (RAW-Dual [2]; agonist: LPS (TLR4) 0.1 ug/mL): 1.22

SMILES: Cc1cccc(Nc2nc(NC3CCCCC3N)ncc2C(N)=O)c1.Cl.Cl (stereo unspecified) (library stock concentration (final ~1000-fold dilution): 10 mM)
- IRF Lucia reporter activity (RAW-Dual [3]; [4]): 0.0182
- IRF Lucia reporter activity (RAW-Dual [3]; agonist: LPS (TLR4) 0.1 ug/mL): 0.0241

SMILES: CCc1ccc(/C=C2/SC(=S)NC2=O)cc1
- IRF Lucia reporter activity (RAW-Dual [1]): 0.933

SMILES: CCc1ccc(/C=C2/SC(=S)NC2=O)cc1 (library stock concentration (final ~1000-fold dilution): 10 mM)
- IRF Lucia reporter activity (RAW-Dual [2]; [4]): 0.59
- IRF Lucia reporter activity (RAW-Dual [2]; agonist: LPS (TLR4) 0.1 ug/mL): 0.406

SMILES: Cc1ccc(Nc2nccc(N(C)c3ccc4c(C)n(C)nc4c3)n2)cc1S(N)(=O)=O (library stock concentration (final ~1000-fold dilution): 10 mM)
- IRF Lucia reporter activity (RAW-Dual [2]; [4]): 0.475
- IRF Lucia reporter activity (RAW-Dual [2]; agonist: LPS (TLR4) 0.1 ug/mL): 0.627

SMILES: Cc1ccc(Nc2nccc(N(C)c3ccc4c(C)n(C)nc4c3)n2)cc1S(N)(=O)=O
- IRF Lucia reporter activity (RAW-Dual [1]): 1.08

SMILES: CN1CCc2c(c3ccccc3n2Cc2ccc(C(=O)NO)cc2)C1.Cl (library stock concentration (final ~1000-fold dilution): 10 mM)
- IRF Lucia reporter activity (RAW-Dual [2]; [4]): 1.18
- IRF Lucia reporter activity (RAW-Dual [2]; agonist: LPS (TLR4) 0.1 ug/mL): 4.79

SMILES: CN1CCc2c(c3ccccc3n2Cc2ccc(C(=O)NO)cc2)C1.Cl
- IRF Lucia reporter activity (RAW-Dual [1]): 5.65

SMILES: Cc1cc(Nc2ncnc3ccc(NC4=NC(C)(C)CO4)cc23)ccc1Oc1ccn2ncnc2c1 (library stock concentration (final ~1000-fold dilution): 10 mM)
- IRF Lucia reporter activity (RAW-Dual [2]; [4]): 0.272
- IRF Lucia reporter activity (RAW-Dual [2]; agonist: LPS (TLR4) 0.1 ug/mL): 0.57

SMILES: O=C(c1c(F)ccc(NS(=O)(=O)N2CCC(F)C2)c1F)c1c[nH]c2ncc(-c3cnc(C4CC4)nc3)cc12 (stereo unspecified) (library stock concentration (final ~1000-fold dilution): 10 mM)
- IRF Lucia reporter activity (RAW-Dual [2]; [4]): 0.123
- IRF Lucia reporter activity (RAW-Dual [2]; agonist: LPS (TLR4) 0.1 ug/mL): 0.671

SMILES: O=C(NC1=CC(=O)[C@@H]2O[C@@H]2[C@@H]1O)c1ccccc1O (library stock concentration (final ~1000-fold dilution): 10 mM)
- IRF Lucia reporter activity (RAW-Dual [2]; [4]): 0.0693
- IRF Lucia reporter activity (RAW-Dual [2]; agonist: LPS (TLR4) 0.1 ug/mL): 0.231

SMILES: Cc1ccc(C(=O)Nc2cccc(C(F)(F)F)c2)cc1Nc1nc(-c2cccnc2)nc2c1cnn2C (library stock concentration (final ~1000-fold dilution): 10 mM)
- IRF Lucia reporter activity (RAW-Dual [2]; [4]): 1.03
- IRF Lucia reporter activity (RAW-Dual [2]; agonist: LPS (TLR4) 0.1 ug/mL): 1.27

SMILES: Cc1ccc(C(=O)Nc2cccc(C(F)(F)F)c2)cc1Nc1nc(-c2cccnc2)nc2c1cnn2C
- IRF Lucia reporter activity (RAW-Dual [1]): 1.46

SMILES: Cc1noc(-c2ccc(CSCCC(=O)O)cc2)c1NC(=O)OC(C)c1ccccc1Cl (stereo unspecified) (library stock concentration (final ~1000-fold dilution): 10 mM)
- IRF Lucia reporter activity (RAW-Dual [2]; [4]): 0.984
- IRF Lucia reporter activity (RAW-Dual [2]; agonist: LPS (TLR4) 0.1 ug/mL): 0.82

SMILES: Cc1noc(-c2ccc(CSCCC(=O)O)cc2)c1NC(=O)OC(C)c1ccccc1Cl (stereo unspecified)
- IRF Lucia reporter activity (RAW-Dual [1]): 1.3

SMILES: COc1ccc(-c2cc(=O)c3c(OC)c(OC)c(OC)c(OC)c3o2)cc1OC (library stock concentration (final ~1000-fold dilution): 10 mM)
- IRF Lucia reporter activity (RAW-Dual [2]; [4]): 0.808 and 0.811
- IRF Lucia reporter activity (RAW-Dual [2]; agonist: LPS (TLR4) 0.1 ug/mL): 0.729 and 0.735

SMILES: COc1ccc(-c2cc(=O)c3c(OC)c(OC)c(OC)c(OC)c3o2)cc1OC
- IRF Lucia reporter activity (RAW-Dual [1]): 0.77

SMILES: COc1ccc(CNCc2cccc3ccccc23)cc1.Cl (library stock concentration (final ~1000-fold dilution): 10 mM)
- IRF Lucia reporter activity (RAW-Dual [2]; [4]): 1.12
- IRF Lucia reporter activity (RAW-Dual [2]; agonist: LPS (TLR4) 0.1 ug/mL): 1.19

SMILES: COc1ccc(CNCc2cccc3ccccc23)cc1.Cl
- IRF Lucia reporter activity (RAW-Dual [1]): 1.35
